The list shows a part of the results.

This is an account of results in the antibiotic and cytotoxicity screens of Wong et al. (2023).

One assay concerns HSkMC. Briefly: cytotoxicity call (relative viability < 0.9). The settings on record: 10 µM.
The subject of the next assay is HepG2. Briefly: cytotoxicity call (relative viability < 0.9). The settings on record: 10 µM.
A further assay has as its system S. aureus RN4220. In words: growth inhibition call (relative growth <= 0.2). The settings on record: 50 µM.

As to `CCS(=O)(=O)c1ccccc1C(N)=O`, the cytotoxicity call in the assay with HSkMC and with HepG2 was “inactive” throughout. The growth inhibition call in the assay on S. aureus RN4220 is “inactive”.

For `C[C@H](CO)N1C[C@H](C)[C@@H](CN(C)Cc2ccc(Oc3ccccc3)cc2)Oc2ccc(NC(=O)Nc3cccc4ccccc34)cc2CC1=O`, the cytotoxicity call with HSkMC was “inactive”. Besides, the cytotoxicity call with HepG2 is “active”. Besides, the growth inhibition call in the assay with S. aureus RN4220 is “inactive”.

`CC(=O)OC1CC(OC(C)=O)C2(C)C(CC(O)C3(C)C2CCC2(C)C(c4ccoc4)OC(=O)C4OC423)C1(C)C` (stereo unspecified): the cytotoxicity call with HSkMC and with HepG2 was “inactive” each time. Besides, in the assay with S. aureus RN4220, the growth inhibition call is “inactive”.

`COC(=O)C(CC#Cc1ccc2c(c1)[C@]1(C(=O)N2)[C@H](c2ccc(OCCO)cc2)N2[C@H](c3ccccc3)[C@H](c3ccccc3)OC(=O)[C@H]2[C@@H]1C(=O)N1CCc2cc(OC)c(OC)cc2C1)C(=O)OC`: the cytotoxicity call in the assay on HSkMC and in the assay on HepG2 was “inactive” in each case. In addition, the growth inhibition call in the assay on S. aureus RN4220 was “inactive”.

On to `Cc1cc(O)c(C=O)c(O)c1C(=O)O`, for which the cytotoxicity call with HSkMC and in the assay with HepG2 was “inactive” each time. Moreover, the growth inhibition call in the assay with S. aureus RN4220 was “inactive”.

For `CC(=O)N[C@@H]1[C@@H](O)[C@H](O)[C@H](CO)O[C@@H]1O`, the cytotoxicity call in the assay with HSkMC and in the assay with HepG2 was “inactive” throughout. The growth inhibition call with S. aureus RN4220 is “inactive”.

`O=C(C[C@H]1CC[C@H]2[C@@H](COC[C@H](O)CN2S(=O)(=O)c2ccccc2)O1)N1CCOCC1`: the cytotoxicity call in the assay on HSkMC and in the assay with HepG2 was “inactive” each time. The growth inhibition call with S. aureus RN4220 is “inactive”.

Regarding `CO[C@@H]1CN(C)C(=O)c2ccc(NS(=O)(=O)c3ccccc3)cc2OC[C@@H](C)N(C(=O)NC(C)C)C[C@H]1C`, the cytotoxicity call in the assay with HSkMC and in the assay on HepG2 was “inactive” throughout. Also, the growth inhibition call with S. aureus RN4220 is “inactive”.

`C[C@H]1CN([C@@H](C)CO)C(=O)Cc2cc(N(C)C)ccc2O[C@H]1CN(C)S(=O)(=O)c1ccc(Cl)cc1`: the cytotoxicity call in the assay on HSkMC is “inactive”. Further, the cytotoxicity call in the assay with HepG2 was “active”. Besides, the growth inhibition call with S. aureus RN4220 is “inactive”.

Consider `C[C@H]1CCCCO[C@H](CN(C)Cc2ccc(Cl)c(Cl)c2)[C@@H](C)CN([C@@H](C)CO)C(=O)c2cc(NC(=O)Nc3ccc4c(c3)OCO4)ccc2O1`, for which the cytotoxicity call with HSkMC is “inactive”. Moreover, the cytotoxicity call in the assay with HepG2 is “active”. Moreover, the growth inhibition call in the assay with S. aureus RN4220 was “inactive”.

With `C[C@@H]1CN([C@H](C)CO)C(=O)c2cc(C#Cc3ccccc3F)cnc2O[C@H]1CN(C)S(=O)(=O)c1ccccc1F`, the cytotoxicity call with HSkMC and in the assay with HepG2 was “inactive” each time. Besides, in the assay with S. aureus RN4220, the growth inhibition call was “inactive”.

Take `C[C@@H]1CN([C@@H](C)CO)C(=O)c2cc(NC(=O)NC3CCCCC3)ccc2O[C@@H](C)CCCCO[C@@H]1CN(C)Cc1ccc(C(=O)O)cc1`: the cytotoxicity call in the assay with HSkMC and in the assay on HepG2 was “inactive” in each case. The growth inhibition call with S. aureus RN4220 is “inactive”.

For the molecule `NC(=S)Nc1ccc(S(N)(=O)=O)cc1`, the cytotoxicity call in the assay with HSkMC and in the assay on HepG2 was “inactive” each time. Besides, the growth inhibition call in the assay with S. aureus RN4220 is “inactive”.

Turning to `C=CCNc1nc(C)nc(OC)n1`, the cytotoxicity call with HSkMC and with HepG2 was “inactive” in each case. Moreover, the growth inhibition call with S. aureus RN4220 is “inactive”.

For `C[C@H](CO)N1C[C@H](C)[C@H](CN(C)C(=O)Nc2ccc(F)cc2)Oc2c(NC(=O)Nc3cccc4ccccc34)cccc2C1=O`, the cytotoxicity call in the assay with HSkMC is “inactive”. In addition, the cytotoxicity call with HepG2 was “active”. The growth inhibition call in the assay with S. aureus RN4220 was “inactive”.

In the case of `Cc1noc(C)c1NC(=O)Nc1ccc2c(c1)C(=O)N([C@H](C)CO)C[C@H](C)[C@@H](CN(C)Cc1ccc(Cl)c(Cl)c1)O2`, the cytotoxicity call with HSkMC and in the assay on HepG2 was “inactive” each time. Further, the growth inhibition call with S. aureus RN4220 was “inactive”.

Take `C[C@@H]1CCCCO[C@@H](CN(C)Cc2ccc3c(c2)OCO3)[C@H](C)CN([C@@H](C)CO)C(=O)c2cc(NC(=O)Nc3cccc4ccccc34)ccc2O1`: the cytotoxicity call in the assay with HSkMC and in the assay with HepG2 was “inactive” in each case. In addition, in the assay on S. aureus RN4220, the growth inhibition call was “inactive”.

As to `COc1cccc(S(=O)(=O)N(C)C[C@H]2Oc3cc(C#CCN(C)C)ccc3S(=O)(=O)N([C@@H](C)CO)C[C@@H]2C)c1`, the cytotoxicity call in the assay on HSkMC and with HepG2 was “inactive” each time. Besides, the growth inhibition call with S. aureus RN4220 was “inactive”.

On to `O=C(C[C@H]1CC[C@@H]2[C@H](COC[C@H](O)CN2S(=O)(=O)c2cccc(Cl)c2)O1)NCc1ccc2c(c1)OCO2`, for which the cytotoxicity call with HSkMC and with HepG2 was “inactive” each time. Besides, the growth inhibition call with S. aureus RN4220 is “inactive”.

Take `C[C@@H]1CCCCO[C@@H](CN(C)S(=O)(=O)c2ccccc2)[C@H](C)CN([C@@H](C)CO)C(=O)c2cc(NC(=O)Nc3ccccc3)ccc2O1`: the cytotoxicity call in the assay with HSkMC and in the assay on HepG2 was “inactive” each time. For the same molecule, in the assay on S. aureus RN4220, the growth inhibition call is “inactive”.

In the case of `COc1ccc(COC[C@]23NC(=S)N[C@H](c4ccccc4O2)[C@H]3CO[Si](C)(C)C(C)(C)C)cc1`, the cytotoxicity call with HSkMC and in the assay on HepG2 was “inactive” throughout. Moreover, the growth inhibition call in the assay with S. aureus RN4220 was “inactive”.

With `COCC(=O)N1CC(=O)N2[C@H](C1)[C@H](c1ccc(C#Cc3cccnc3)cc1)[C@@H]2CO`, the cytotoxicity call in the assay on HSkMC and in the assay on HepG2 was “inactive” in each case. In the assay with S. aureus RN4220, the growth inhibition call was “inactive”.

As to `CN1C(=O)c2cc(NC(=O)C3CCOCC3)ccc2OC[C@@H]2O[C@H](CC(=O)NCc3ccccc3F)CC[C@@H]21`, the cytotoxicity call in the assay with HSkMC and in the assay on HepG2 was “inactive” each time. Moreover, in the assay with S. aureus RN4220, the growth inhibition call is “inactive”.

Turning to `CN1C(=O)c2cc(NC(=O)C3CCOCC3)ccc2OC[C@H]2O[C@@H](CC(=O)NCCc3ccncc3)CC[C@H]21`, the cytotoxicity call with HSkMC and in the assay on HepG2 was “inactive” throughout. Besides, in the assay on S. aureus RN4220, the growth inhibition call was “inactive”.

For `O=C(C[C@H]1C=C[C@@H](NC(=O)CN2CCOCC2)[C@H](CO)O1)NCCc1ccncc1`, the cytotoxicity call in the assay on HSkMC and with HepG2 was “inactive” throughout. Also, the growth inhibition call in the assay on S. aureus RN4220 is “inactive”.

For the molecule `Cn1cc[nH]c1=S`, the cytotoxicity call in the assay on HSkMC and in the assay on HepG2 was “inactive” throughout. Further, the growth inhibition call in the assay with S. aureus RN4220 was “inactive”.

On to `Cc1ccc(S(=O)(=O)N(C)C[C@H]2OCCCC[C@@H](C)Oc3ccc(NC(=O)C4CCCCC4)cc3C(=O)N([C@H](C)CO)C[C@H]2C)cc1`, for which the cytotoxicity call in the assay on HSkMC (human skeletal muscle cells) and in the assay on HepG2 was “inactive” in each case. In the assay on S. aureus RN4220, the growth inhibition call was “inactive”.
